# According to the supplement of paper PMC4604168 (melanoma cell lines):
# The list shows a part of the results. Many values rest on one well or one pass, so single values are uncertain.
# Test system: A2058
# Assay: cell count relative to DMSO control; melanoma cells; higher = more viable cells
# Details: library dose: standard library concentration; 72 h
# 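Also: cells treated in 1,536-well plates, then fixed and DAPI-stained, with nuclei counted from automated high-throughput microscope images.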
row,SMILES,cell count [%]
1,"CCN(CC)CCNC(=O)c1c(C)[nH]c(/C=C2\C(=O)Nc3ccc(F)cc32)c1C [sunitinib] + NCC(=O)Nc1ccc(-n2nc(C(F)(F)F)cc2-c2ccc3c(ccc4ccccc43)c2)cc1 [OSU03012] (first compound 2 µM, partner dose 5 µM)",66.4
2,"CCN(CC)CCNC(=O)c1c(C)[nH]c(/C=C2\C(=O)Nc3ccc(F)cc32)c1C [sunitinib] + Clc1ccc(Nc2nnc(Cc3ccncc3)c3ccccc23)cc1 [vatalanib] (first compound 2 µM, partner dose 10 µM)",59.1
3,"C[C@]1(O)C[C@@H](c2nc(-c3ccc4ccc(-c5ccccc5)nc4c3)c3c(N)nccn32)C1 + C#Cc1cccc(Nc2ncnc3cc(OCCOC)c(OCCOC)cc23)c1 [erlotinib] (first compound 2 µM, partner dose 4 µM)",86.6
4,"COc1cc([C@@H]2c3cc4c(cc3[C@@H](O[C@@H]3O[C@@H]5CO[C@@H](C)O[C@H]5[C@H](O)[C@H]3O)[C@H]3COC(=O)[C@H]23)OCO4)cc(OC)c1O [etoposide] + COCC[n+]1c2c(n(Cc3cnccn3)c1C)C(=O)c1ccccc1C2=O [YM155] (first compound 0.1 µM, partner dose 0.002 µM)",17.5
5,"C[C@]1(O)C[C@@H](c2nc(-c3ccc4ccc(-c5ccccc5)nc4c3)c3c(N)nccn32)C1 + Cn1nnc2c(C(N)=O)ncn2c1=O [temozolomide] (first compound 2 µM, partner dose 10 µM)",45.7
6,"CCN(CC)CCNC(=O)c1c(C)[nH]c(/C=C2\C(=O)Nc3ccc(F)cc32)c1C [sunitinib] + Nc1cccc2c1CN(C1CCC(=O)NC1=O)C2=O [lenalidomide] (first compound 2 µM, partner dose 5 µM)",85.7
7,"Cn1cnc2c(F)c(Nc3ccc(Br)cc3Cl)c(C(=O)NOCCO)cc21 [selumetinib] + O=C(Nc1cccc(Cl)c1)Nc1ncc(CCNc2ncnc3ccsc23)s1 [SNS314] (first compound 0.075 µM, partner dose 0.004 µM)",100
8,"C[C@]1(O)C[C@@H](c2nc(-c3ccc4ccc(-c5ccccc5)nc4c3)c3c(N)nccn32)C1 + O=C(O)c1ccc2c(c1)nc(Nc1cccc(Cl)c1)c1ccncc12 [CX4945] (first compound 2 µM, partner dose 2 µM)",67.4
9,"COc1cc([C@@H]2c3cc4c(cc3[C@@H](O[C@@H]3O[C@@H]5CO[C@@H](C)O[C@H]5[C@H](O)[C@H]3O)[C@H]3COC(=O)[C@H]23)OCO4)cc(OC)c1O [etoposide] + C[C@@H]1CCN(C(=O)CC#N)C[C@@H]1N(C)c1ncnc2[nH]ccc12 [CP690550] (first compound 0.1 µM, partner dose 5 µM)",96
10,"CCN(CC)CCNC(=O)c1c(C)[nH]c(/C=C2\C(=O)Nc3ccc(F)cc32)c1C [sunitinib] + COCC[n+]1c2c(n(Cc3cnccn3)c1C)C(=O)c1ccccc1C2=O [YM155] (first compound 2 µM, partner dose 0.002 µM)",20.4
11,"Cn1cnc2c(F)c(Nc3ccc(Br)cc3Cl)c(C(=O)NOCCO)cc21 [selumetinib] + CC(=O)O[C@@]12CO[C@@H]1C[C@H](O)[C@@]1(C)C(=O)[C@H](O)C3=C(C)[C@@H](OC(=O)[C@H](O)[C@@H](NC(=O)OC(C)(C)C)c4ccccc4)C[C@@](O)([C@@H](OC(=O)c4ccccc4)[C@H]21)C3(C)C [Docetaxel] (first compound 0.075 µM, partner dose 0.0005 µM)",13.4
12,"CCN(CC)CCNC(=O)c1c(C)[nH]c(/C=C2\C(=O)Nc3ccc(F)cc32)c1C [sunitinib] + NC1(c2ccc(-c3nc4ccn5c(=O)[nH]nc5c4cc3-c3ccccc3)cc2)CCC1 [MK2206] (first compound 2 µM, partner dose 2 µM)",44.9
13,"C[C@]1(O)C[C@@H](c2nc(-c3ccc4ccc(-c5ccccc5)nc4c3)c3c(N)nccn32)C1 + CCCS(=O)(=O)Nc1ccc(F)c(C(=O)c2c[nH]c3ncc(Cl)cc23)c1F [PLX4720] (first compound 2 µM, partner dose 0.4 µM)",112
